Experimental data as given in PubChem BioAssay AID686979 (National Center for Advancing Translational Sciences (NCATS), 2013).
About 50,000 (12%) of roughly 420,000 compounds were called active. This list was built around the results that the source calls inconclusive (neither active nor inactive); the mix of calls is not that of the screen. The call rests on the fitted dose curve; in most records, active means well fitted inhibition curve with a large enough effect; inconclusive means small, poorly fitted or top-dose-only effect; inactive means flat fitted curve, though single readings scatter. No potency is given beside an inconclusive call; the fits are too rough.

assay: qHTS for Inhibitors of human tyrosyl-DNA phosphodiesterase 1 (TDP1): qHTS in cells in presence of CPT; settings: chicken DT40 Tdp1-/-;hTDP1 cells + 20 nM CPT, ATP luminescence, 48 h; activity change, negative = growth inhibition: at 46.2 µM (top of the series); further: nearly all actives have a fitted effect of over 55% in size
Summary of the method: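 Chicken DT40 Tdp1-/- cells stably complemented with human TDP1 were seeded at 400 cells/well in medium containing 20 nM camptothecin, exposed to pin-transferred compounds, and grown at 37 °C for at least 48 hr. Viability was read as ATP luminescence.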
On the % scale 0 is the no-effect control and ±100 the full control effect; potency means the concentration at half of the fitted maximal effect; tags describe the fitted curve by direction and shape.

Row | SMILES | activity change, negative = growth inhibition | Potency
1 | C=CCSc1nnc2c(n1)OC(C)=Nc1ccc(Br)cc1-2 | inactive: -20.6% | 
2 | CN(C)C(=O)CCc1ccc2c3c([nH]c2c1)[C@]1(CCc2ccccc2)[C@@H](C(=O)N2CCCCC2)C[C@H](CC(=O)NCCC2=CCCCC2)C(=O)N1CC3 |  | active: 8.2 µM
3 | CC(=O)Nc1ccccc1Sc1ccc2c3c(cccc13)C(=O)N(c1ccc(C)cc1)C2=O |  | active: 11.6 µM
4 | Fc1ccccc1NC(=S)Nn1cnnc1 |  | inconclusive [inhibitor, single point]
5 | COc1ccc(S(=O)(=O)N2CCC[C@H]2C(=O)N2CCC[C@H]2C(=O)N(C)Cc2ccccc2)cc1C |  | inconclusive [inhibitor, single point]
6 | Cc1ccc(NS(=O)(=O)c2c(C)[nH]c(C)c2C(=O)N2CCCC2)cc1Cl |  | inconclusive [inhibitor, partial curve]
7 | O=C1NC(=Nc2ccc(O)cc2)S/C1=C\C=C\c1ccco1 |  | active: 0.82 µM
8 | CC(=O)N1CC(C)Sc2ccc(S(=O)(=O)NC(C)c3ccccc3)cc21 (centres undefined) |  | inconclusive [inhibitor, single point]
9 | CCOC(=O)C(C)Sc1nnc(-c2c[nH]c3ccccc23)n1C (centres undefined) | inconclusive: -36.2% [inhibitor] | 
10 | CC(C)(C)OC(=O)N1CCC[C@H]1C(=O)N/N=C/c1ccc2ncccc2c1 | inactive: 4.29% | 
11 | CCOC(=O)N1C2C=C(C)[C@@H]2[C@@H]2CC(=O)N21 (some centres undefined) | inactive: -16.3% | 
12 | CCCCNC(=O)c1ccccc1NC(=O)CN(c1ccccc1)S(=O)(=O)N(C)C |  | inconclusive [inhibitor, single point]
13 | Cc1nc(C)c(/C(O)=C\c2nc3ccc([N+](=O)[O-])cc3oc2=O)o1 | inactive: -17.8% | 
14 | O=C(c1ccc(-n2cccc2)cc1)N1CCN(Cc2ccccc2)CC1 |  | inconclusive [inhibitor, single point]
15 | O=C(COc1ccccc1)Nc1ccc(S(=O)(=O)Nc2ccccn2)cc1 | inconclusive: -30.1% [inhibitor] | 
16 | COc1ccc(C(=O)N/N=C/c2c(CO)cnc(C)c2O)cc1 |  | active: 5.8 µM
17 | O=C(CSc1nnc(-c2ccc(O)cc2)o1)Nc1cccc(O)c1 | inactive: -11.6% | 
18 | O=C1CSC2(CCN(CCCN3c4ccccc4Sc4ccc(Cl)cc43)CC2)N1 |  | active: 23.7 µM
19 | CCCC(=O)OCCNc1cc(SCc2ccco2)c2nonc2c1[N+](=O)[O-] |  | inconclusive [inhibitor, single point]
20 | CC(=O)c1ccc(OCCn2c(SCC(=O)O)nc3ccccc32)cc1 | inactive: 3.63% | 
21 | COc1ccc(NS(=O)(=O)c2ccc(Br)s2)cc1OC |  | inconclusive [inhibitor, partial curve, poor fit]
22 | Cc1ccc2c(c1)C(=O)[C@@]1(O)CCN(c3ccccc3)C1=N2 |  | active: 8.41 µM
23 | C=CCN1C(=O)C(CC(=O)Nc2ccc(OC)cc2)N(Cc2ccco2)C1=S (centres undefined) | inactive: -6.96% | 
24 | O=C(NNC(=S)NC(=O)c1cccs1)c1ccc(O)cc1 |  | active: 23.1 µM
25 | O=C(CSc1nc(=O)n(Cc2ccco2)c2c1CCC2)Nc1ccccc1C(F)(F)F | inconclusive: -30.3% [inhibitor] | 

Row | SMILES | activity change, negative = growth inhibition | Potency
26 | CN(C)S(=O)(=O)c1ccc(C(=O)NCc2nc3ccccc3s2)cc1 | inactive: 0.0356% | 
27 | COc1cc(C(CCN2CCN(c3ccccc3)CC2)c2c(OC)cc(OC)c3c(C)cc(=O)oc23)cc(OC)c1OC (centres undefined) |  | active: 16.4 µM
28 | O=C(Nc1ccc(NC(=O)c2ccc([N+](=O)[O-])o2)cc1Cl)c1ccco1 |  | inconclusive [inhibitor, single point]
29 | COc1ccc2cnn(Cc3ccccc3)c(=O)c2c1OC |  | inconclusive [inhibitor, single point]
30 | COc1ccc(Nc2nc(C)cc(C)c2C(N)=O)cc1 | inactive: -22.9% | 
31 | Cc1ccccc1OCC(=O)Nc1ccc(S(=O)(=O)N2CCCC2)cc1 |  | inconclusive [inhibitor, single point]
32 | FC(F)C(F)(F)Oc1cccc(-c2n[nH]c(=S)n2Cc2ccccc2)c1 |  | inconclusive [inhibitor, single point]
33 | CC(=O)N1CCN(c2ccc(NC(=O)c3ccc(Cl)c([N+](=O)[O-])c3)cc2)CC1 |  | inconclusive [inhibitor, partial curve]
34 | COc1ccc(OC)c(NC(=O)CSc2ccc3nnc(-c4ccccn4)n3n2)c1 | inactive: 0.888% | 
35 | Cc1ccc(S(=O)(=O)N(C)C)cc1NC(=O)COC(=O)CCC1CCCCC1 | inactive: -22.2% | 
36 | O=C(NCc1ccc(F)cc1)C1CC(=O)N(C2CCCCCCC2)C1 (centres undefined) | inactive: 0.121% | 
37 | O=C(CCCCC(=O)Nc1ccc(F)cc1)Nc1ccc(F)cc1 | inactive: -11.6% | 
38 | CC(=O)N1CCCc2cc(S(=O)(=O)N3CCC(C(=O)NCc4ccccc4)CC3)ccc21 |  | inconclusive [inhibitor, single point]
39 | CCc1ccccc1OCC(=O)OCC(=O)N1CC(=O)Nc2ccccc21 | inactive: -2.85% | 
40 | CC(=O)Nc1ccc(S(=O)(=O)NCCC(=O)OCc2csc(CC(=O)Nc3ccccc3C)n2)cc1 | inactive: -4.18% | 
41 | CCc1nnc(SCC(=O)N(CC)c2ccccc2)c2cc3oc(C)cc3n12 |  | inconclusive [inhibitor, single point]
42 | O=C(CCN1CCN(CCO)CC1)Nc1cccc(Br)c1 | inactive: 1.66% | 
43 | CCN1C(=O)c2ccccc2S(=O)c2ccc(C(=O)N3CCCCCC3)cc21 (centres undefined) |  | inconclusive [inhibitor, single point]
44 | CCN1CCc2nc(NC(=O)C(c3ccccc3)c3ccccc3)sc2C1 |  | inconclusive [inhibitor, single point]
45 | O=S(=O)(c1ccc(Cl)s1)N1CCN(Cc2ccccc2)CC1 |  | inconclusive [inhibitor, partial curve]
46 | CC(C)COc1ccc(C(=O)OC2CC(C)(C)OCC2CN(C)C)cc1 (centres undefined) |  | inconclusive [inhibitor, single point]
47 | COc1ccc(-c2cc(C(=O)OCC(=O)N(C)C3CCS(=O)(=O)C3)c3ccccc3n2)cc1OC (centres undefined) |  | inconclusive [inhibitor, single point]
48 | CCOC(=O)CNC(c1ccccc1)c1cc(Br)ccc1NC(=O)c1cccc(Cl)c1 (centres undefined) |  | inconclusive [inhibitor, single point]
49 | COc1ccc(OC)c(/C=N/NC(=O)CCN2CCN(C(c3ccccc3)c3ccccc3)CC2)c1 |  | inconclusive [inhibitor, single point]
50 | OC(c1ccccc1)c1ncc(-c2ccc(Oc3ccccc3)cc2)[nH]1 (centres undefined) |  | active: 23.1 µM

Row | SMILES | activity change, negative = growth inhibition | Potency
51 | Cc1cc(C)nc(Nc2ccc(C)c([N+](=O)[O-])c2)n1 | inactive: 18.1% | 
52 | O=C(O)c1ccc([N+](=O)[O-])cc1 | inactive: 11.9% | 
53 | CN(C)c1ccc(C=O)c(Oc2ccccc2)c1 | inactive: -4.59% | 
54 | CCN(CC)S(=O)(=O)c1cc(NC(=O)Cn2cnc3ccccc3c2=O)ccc1C |  | inconclusive [inhibitor, single point]
55 | Cc1ccc(CN2CCSc3ccc(C(=O)Nc4ccc(C)cc4)cc32)cc1 |  | active: 16.4 µM
56 | COc1cc(Cl)c(C)cc1NC(=S)NN |  | inconclusive [inhibitor, single point]
57 | COc1ccc(S(=O)(=O)N2CCN(C(=O)N(C)C)C2C)cc1 (centres undefined) | inactive: 25.4% | 
58 | CCOC(=O)CN(C(=O)c1snc(C(N)=O)c1N)C(C(=O)NC1CCCCC1)c1ccc(F)cc1 (centres undefined) | inactive: 5.34% | 
59 | COc1ccc(NC(=O)c2ccc(NC(=O)CN(C)CC(=O)Nc3c(C)cccc3C)cc2)cc1 |  | inconclusive [inhibitor, single point]
60 | FC(F)(F)c1ccc2c(c1)n(Cc1ccccc1)c1[n+]2CCCCC1 |  | inconclusive [inhibitor, single point]
61 | Cc1ccc2cc(CN(Cc3ccco3)C(=O)NCc3ccccc3)c(=O)[nH]c2c1C |  | inconclusive [inhibitor, single point]
62 | CCOc1cc(CNc2ccc(OC)cc2)cc(Br)c1OCC(=O)NC(C)(C)C |  | inconclusive [inhibitor, single point]
63 | Cc1ccc(C)c(NC(=O)CSc2nc3c([nH]c4ccccc43)c(=O)n2-c2ccc(F)cc2)c1 |  | active: 14.6 µM
64 | CCN(CCc1ccccc1)c1ccc2c(c1)C1CC2CCN1Cc1ccccc1 (centres undefined) |  | active: 6.51 µM
65 | CC(C)C(=O)Nc1nc(-c2ccc([N+](=O)[O-])cc2)cs1 |  | active: 9.2 µM
66 | C#CCOCCOCCOCCNc1nc(N2CCN(C(=O)[C@H]([C@@H](C)CC)n3cc(CCCCN)nn3)CC2)nc(N2CCN(C(=O)[C@H](C)n3cc(CCC(=O)O)nn3)CC2)n1 |  | inconclusive [inhibitor, single point]
67 | Cc1[nH]nc(N)c1-c1ccccc1 | inactive: -5.41% | 
68 | N/C(=N\OC(=O)c1ccc2c(c1)OCO2)c1cccnc1 | inactive: -22.5% | 
69 | COc1ccc(CC(=O)NCC(c2ccc(Cl)cc2)N2CCOCC2)cc1 (centres undefined) | inactive: -8.56% | 
70 | O=C(Oc1cccc(Nc2ncnc3ccccc23)c1)c1ccccc1Cl |  | inconclusive [inhibitor, single point]
71 | COc1ccc(S(=O)(=O)Nc2ccc(O)c(Sc3ncn[nH]3)c2)cc1 | inconclusive: -30.7% [inhibitor] | 
72 | CCOC(=O)c1c(C)[nH]c(C)c1S(=O)(=O)NCCCN1CCOCC1 | inactive: 3.68% | 
73 | Cn1cc(CNCc2cn(C)nc2-c2ccc(C3CCCCC3)cc2)cn1 |  | inconclusive [inhibitor, single point]
74 | Cn1nc(-c2ccc(Cl)cc2)c2cc(C(=O)NCCCN3CCOCC3)sc21 |  | active: 16.4 µM
